Measured values taken from PubChem BioAssay AID894 (National Center for Advancing Translational Sciences (NCATS), 2007).
Several values for one entry are separate records, joined by “and”; a condition that tells them apart may be missing. Equal entries are not always repeated. Hit rate of the full screen: of about 150,000 compounds, about 6,500 (4.3%) were called active. This list was built around the results that the source calls inconclusive (neither active nor inactive); the mix of calls is not that of the screen. Calls follow the shape of the dose curve; as a rule, active = well fitted inhibition curve with a large enough effect (not every such curve was filed as active); inconclusive = small, poorly fitted or top-dose-only effect, or another doubt; inactive = no such curve, though single readings can be large or run the other way. Potencies of inconclusive entries are doubtful fits and often do not repeat.

biological target: 15-hydroxyprostaglandin dehydrogenase [NAD(+)] (Homo sapiens) (UniProt P15428); assay: qHTS Assay for Inhibitors of HPGD (15-Hydroxyprostaglandin Dehydrogenase); settings: purified HPGD, NADH fluorescence kinetic, PGE2 substrate; activity change, negative = inhibition: hits give low values
Chain of UniProt P15428 (P15428 whole entry, looked up): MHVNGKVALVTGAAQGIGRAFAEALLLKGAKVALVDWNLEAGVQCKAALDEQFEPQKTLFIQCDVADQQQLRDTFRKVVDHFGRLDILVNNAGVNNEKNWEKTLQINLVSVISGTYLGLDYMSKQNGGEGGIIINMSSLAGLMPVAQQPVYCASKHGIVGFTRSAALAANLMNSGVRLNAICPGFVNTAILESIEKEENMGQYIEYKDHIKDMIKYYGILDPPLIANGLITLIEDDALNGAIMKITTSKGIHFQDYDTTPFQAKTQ
Outline: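 20 nM HPGD preincubated 15 min at room temperature with compound in 50 mM Tris-HCl pH 8, 0.01% Tween 20. Started with 1 mM NAD+ and 30 uM prostaglandin E2; NADH fluorescence (360/450 nm) read 5 times over 30-s intervals, last minus first.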
% is scaled to controls: 0 for no effect and ±100 for the full control effect; potency is read from the fitted curve at half-maximal effect; tags tell the direction and shape of the fitted curve.

**Q.** How did the Potency turn out when `Cc1cccc(-n2ncc3c(NCc4ccco4)ncnc32)c1` was run?
**A.** inconclusive: 15.8 µM [inhibitor, partial curve]

**Q.** How did the Potency turn out when `COCCCn1c2nc3ccccc3nc2c2c(=O)n(-c3ccccc3OC)c(C)nc21` was run?
**A.** inconclusive: 31.6 µM [inhibitor, partial curve]

**Q.** For `O=c1cc(-c2ccc3c(c2)OCCO3)oc2ccc(Cl)cc12`, which Potency is on record?
**A.** inconclusive: 25.1 µM [inhibitor, partial curve]

**Q.** How did the Potency turn out when `Cc1ccc2nc(-c3ccc(S(=O)(=O)N4CCOCC4)cc3)cn2c1` was run?
**A.** inconclusive: 25.1 µM [inhibitor, partial curve]

**Q.** With `CCOC(=O)/C=c1\sc2n(c1=O)CCN=2` as the compound, how does the Potency read?
**A.** inconclusive: 25.1 µM [inhibitor, partial curve]

**Q.** With `COc1ccc(N2C(=O)CC(NCCNc3ccc([N+](=O)[O-])cn3)C2=O)cc1` (stereo not given) as the compound, how does the activity change, negative = inhibition read?
**A.** inactive: -15.6%

**Q.** With `Cc1nnc(SCC(=O)NC2CCCC2)s1` as the compound, how does the Potency read?
**A.** active: 28.2 µM

**Q.** With `CCNC(=S)N(Cc1cc2cccc(C)c2[nH]c1=O)C1CCCC1` as the compound, how does the activity change, negative = inhibition read?
**A.** inactive: -22.6%

**Q.** With `O=c1c(-c2ccccc2)coc2cc(O)cc(O)c12` as the compound, how does the Potency read?
**A.** active: 6.31 µM

**Q.** For `Cc1cccc2cc(CN(CC3CCCO3)C(=O)c3ccco3)c(=O)[nH]c12` (stereo not given), which activity change, negative = inhibition is on record?
**A.** inactive: -28.5%

**Q.** `COCCCNC(=O)c1cn(CC(C)C)c(=O)c2c1c1ccccc1n2C` was tested. Which Potency did it give?
**A.** inconclusive: 31.6 µM [inhibitor, single point]

**Q.** `O=C(Nc1nc2c(s1)CCCC2)c1ccc2ncsc2c1` was tested. Which Potency did it give?
**A.** inconclusive: 28.2 µM [inhibitor, partial curve]

**Q.** How did the Potency turn out when `S=c1[nH]nc(CCc2ccccc2)n1-c1ccccc1` was run?
**A.** active: 15.8 µM

**Q.** With `CCOC(=O)Nc1cc(Br)c2c(c1)OCCO2` as the compound, how does the Potency read?
**A.** active: 14.1 µM

**Q.** Which Potency does the source give for `O=C(Nc1cnn(Cc2ccc(Cl)cc2Cl)c1)c1cc(-c2cccs2)on1` here?
**A.** inconclusive: 28.2 µM [inhibitor, single point]

**Q.** How did the Potency turn out when `O=C(CSc1nc(-c2ccccc2)c(-c2ccccc2)[nH]1)Nc1ccc2c(c1)OCO2` was run?
**A.** inconclusive: 31.6 µM [inhibitor, partial curve]

**Q.** With `COc1ccc(C(=O)Nc2sc(C)c(-c3ccccc3)c2C#N)cc1OC` as the compound, how does the Potency read?
**A.** inconclusive: 39.8 µM [inhibitor, partial curve]

**Q.** Which Potency does the source give for `Cc1nc2ccccn2c(=O)c1CCN1CCC(C(=O)c2ccc(F)cc2)CC1` here?
**A.** inconclusive: 17.8 µM [inhibitor, partial curve] and inconclusive: 20 µM [inhibitor, partial curve]

**Q.** How did the Potency turn out when `Clc1c(-c2nnc3n2CCC3)sc2ccccc12` was run?
**A.** active: 28.2 µM

**Q.** Which activity change, negative = inhibition does the source give for `CCN(CC)CCNC(=O)c1ccc(N2CCCCC2)c(NS(=O)(=O)c2ccc(C)cc2)c1` here?
**A.** inactive: -8.46%

**Q.** How did the activity change, negative = inhibition turn out when `O=C(OC1CCCCC1)c1ccc(NC(=O)C2CCCCC2)cc1` was run?
**A.** inactive: -3.12%

**Q.** `Cc1ccc(C(=O)Nc2nc(C(C)(C)C)cs2)s1` was tested. Which activity change, negative = inhibition did it give?
**A.** inactive: -15.5%

**Q.** `COc1ccc(C(C)=O)cc1CSc1nncn1-c1ccccc1` was tested. Which activity change, negative = inhibition did it give?
**A.** inactive: -9.53%

**Q.** With `COc1cc2c(C)c3c4c(cc(OC)c(OC)c4c2cc1OC)CCN3C` as the compound, how does the Potency read?
**A.** inconclusive: 35.5 µM [inhibitor, partial curve]

**Q.** Which activity change, negative = inhibition does the source give for `Cc1ccc(S(=O)(=O)N2CCc3nc(-c4ccccc4)c4c(c3C2)CO[C@@H](C)C4)cc1` here?
**A.** inactive: -7.29%

**Q.** Which Potency does the source give for `Cc1ccsc1C(=O)OCC(=O)Nc1c(Cl)cccc1C(F)(F)F` here?
**A.** inconclusive: 12.6 µM [inhibitor, partial curve]

**Q.** `CCOC(=O)c1ccccc1NS(=O)(=O)c1ccc(OC)cc1` was tested. Which Potency did it give?
**A.** inconclusive: 25.1 µM [inhibitor, partial curve]

**Q.** Which Potency does the source give for `Cc1ccc(-n2c3nc(=O)[nH]c(=O)c-3cc3cc([N+](=O)[O-])ccc32)cc1` here?
**A.** inconclusive: 31.6 µM [inhibitor, partial curve]

**Q.** How did the activity change, negative = inhibition turn out when `O=C(CN1C(=O)NC2(CCCCC2)C1=O)NCc1cccs1` was run?
**A.** inactive: -0.278%

**Q.** How did the Potency turn out when `CC(C)(C)c1ccc(S(=O)(=O)CC(O)CSc2nc3c(cc2C#N)CCCC3)cc1` (stereo not given) was run?
**A.** inconclusive: 31.6 µM [inhibitor, single point]

**Q.** Which activity change, negative = inhibition does the source give for `CCNC(=S)Nc1ccc(Cl)cc1` here?
**A.** inactive: 0.175%

**Q.** For `CCOc1ccc(-c2cc(C(=O)NCC3CCCO3)c3ccccc3n2)cc1` (stereo not given), which Potency is on record?
**A.** inconclusive: 22.4 µM [inhibitor, partial curve]

**Q.** With `C=CCSc1nnc(NC(=O)CSc2nc3ccccc3[nH]2)s1` as the compound, how does the Potency read?
**A.** inconclusive: 25.1 µM [inhibitor, partial curve, poor fit]

**Q.** With `COC(=O)c1ccc(C(=O)OC)c(NC(=O)COC(=O)CC2CC3CCC2C3)c1` (stereo not given) as the compound, how does the Potency read?
**A.** inconclusive: 25.1 µM [inhibitor, single point]

**Q.** For `O=S(=O)(c1ccc(-c2nnc(SCc3ccccc3)o2)cc1)N1CCCC1`, which activity change, negative = inhibition is on record?
**A.** inactive: -8.69%

**Q.** With `COc1ccc(C2C(C#N)=C(N)Oc3n[nH]c(C)c32)cc1Cn1nnc2ccccc21` (stereo not given) as the compound, how does the Potency read?
**A.** inconclusive: 25.1 µM [inhibitor, partial curve]

**Q.** `Oc1ccc2ccccc2c1CN1CCN(c2ccccc2)CC1` was tested. Which Potency did it give?
**A.** inconclusive: 28.2 µM [inhibitor, partial curve, poor fit]

**Q.** With `O=C(Nc1ccccc1)c1ccc2nsnc2c1` as the compound, how does the Potency read?
**A.** inconclusive: 14.1 µM [inhibitor, partial curve]

**Q.** `COC(=O)c1sc(N)c(C(=O)OC)c1COC(=O)CNS(=O)(=O)c1ccc(C)c(C)c1` was tested. Which Potency did it give?
**A.** inconclusive: 31.6 µM [inhibitor, single point]

**Q.** For `CCCNC(=O)c1ccc2c(c1)ncn2-c1ccccc1OC`, which Potency is on record?
**A.** active: 17.8 µM

**Q.** For `CC(Nc1oc(-c2ccccc2)nc1-c1ccccc1)c1ccccc1` (stereo not given), which activity change, negative = inhibition is on record?
**A.** inactive: 0.641% and inactive: -7.86%

**Q.** For `O=C(O)c1cc(N2C(=O)C3C4C=CC(C4)C3C2=O)ccc1NCc1cccnc1` (stereo not given), which Potency is on record?
**A.** inconclusive: 25.1 µM [inhibitor, partial curve]

**Q.** For `O=C(NCC1CCCO1)c1ccc(COc2ccc(F)cc2)o1` (stereo not given), which Potency is on record?
**A.** active: 25.1 µM

**Q.** Which Potency does the source give for `O=C(N/N=C/c1cn(-c2ccccc2)nc1-c1cc2ccccc2o1)c1ccccc1Br` here?
**A.** inconclusive: 31.6 µM [inhibitor, partial curve]

**Q.** For `Fc1ccc(-c2csc(/C=C/c3ccc4c(c3)OCO4)n2)cc1`, which Potency is on record?
**A.** inconclusive: 8.91 µM [inhibitor, partial curve]

**Q.** For `COc1ccccc1/C=N/n1c(N)c(S(=O)(=O)c2cccs2)c2nc3ccccc3nc21`, which Potency is on record?
**A.** inconclusive: 31.6 µM [inhibitor, partial curve]

**Q.** Which Potency does the source give for `Cc1cccc(CNc2ncnc3ccc(-c4ccc5c(c4)OCO5)cc23)c1` here?
**A.** inconclusive: 7.08 µM [inhibitor, partial curve]

**Q.** How did the activity change, negative = inhibition turn out when `COc1cccc(C(=O)N2CCN(Cc3ccccc3[N+](=O)[O-])CC2)c1` was run?
**A.** inactive: 0.691%

**Q.** How did the Potency turn out when `O=c1[nH]c2cc3c(cc2cc1CN(Cc1ccc2c(c1)OCO2)Cc1nnnn1CC1CCCO1)OCO3` (stereo not given) was run?
**A.** inconclusive: 31.6 µM [inhibitor, partial curve]

**Q.** For `Cc1cc(C)c(C)c(OCCCOc2cccc3cccnc23)c1`, which Potency is on record?
**A.** inconclusive: 31.6 µM [inhibitor, single point]

**Q.** With `Cc1cc2oc(=O)cc(-c3ccccc3)c2c(C)c1-c1ccc(F)c(Cl)c1` as the compound, how does the activity change, negative = inhibition read?
**A.** inactive: -1.74%

**Q.** Which activity change, negative = inhibition does the source give for `Cc1c(C(=O)Nc2ccc3c(c2)OCCO3)sc2nc(-c3ccccc3)cn12` here?
**A.** inactive: -11%

**Q.** With `CC1CN(C(=O)c2ccc(C(=O)c3ccccc3)cc2)CC(C)O1` (stereo not given) as the compound, how does the Potency read?
**A.** active: 14.1 µM

**Q.** How did the Potency turn out when `CC1CC(=O)c2cnc(Nc3ccccc3)nc2C1` (stereo not given) was run?
**A.** inconclusive: 35.5 µM [inhibitor, partial curve]

**Q.** `CN(C)c1nc(SCCOC(=O)COc2ccc(Cl)cc2Cl)nc(N(C)C)n1` was tested. Which Potency did it give?
**A.** active: 15.8 µM

**Q.** For `Cc1ccc(SCCNC(=O)c2cccc([N+](=O)[O-])c2C)cc1`, which Potency is on record?
**A.** active: 25.1 µM

**Q.** Which Potency does the source give for `CN(C)c1ccc(-c2nn3c(C4CCCCC4)nnc3s2)cc1` here?
**A.** inconclusive: 15.8 µM [inhibitor, partial curve]

**Q.** Which Potency does the source give for `COc1ccc(OCc2nc3c4cc(OC)c(OC)cc4nc(=S)n3[nH]2)cc1` here?
**A.** inconclusive: 22.4 µM [inhibitor, partial curve, poor fit]

**Q.** `NS(=O)(=O)c1ccc(Nc2nc(-c3ccc(O)cc3O)cs2)cc1` was tested. Which Potency did it give?
**A.** inconclusive: 39.8 µM [inhibitor, single point]

**Q.** `O=C(Nc1ccccc1Oc1ccccc1)c1ccccc1F` was tested. Which activity change, negative = inhibition did it give?
**A.** inactive: -15.3%

**Q.** `CC(C)Cc1nc(N2CCOCC2)c(C#N)c2c1COC(C)(C)C2` was tested. Which Potency did it give?
**A.** inconclusive: 31.6 µM [inhibitor, partial curve]

**Q.** Which Potency does the source give for `O=C(COc1ccc2c3c(c(=O)oc2c1)CCC3)NC1CCCCC1` here?
**A.** inconclusive: 15.8 µM [inhibitor, partial curve]

**Q.** For `Cc1ccc(-c2nn(-c3ccccc3)cc2CN(Cc2ccccc2)C(=O)CCC(=O)O)o1`, which Potency is on record?
**A.** inconclusive: 25.1 µM [inhibitor, partial curve]

**Q.** With `Cc1ccc(CN2CCN(C(=O)c3ccco3)CC2)cc1` as the compound, how does the activity change, negative = inhibition read?
**A.** inactive: 1.48%

**Q.** For `N#Cc1cnn(-c2nc3sc4c(c3c(=O)[nH]2)CCCC4)c1N`, which Potency is on record?
**A.** inconclusive: 28.2 µM [inhibitor, single point]

**Q.** Which Potency does the source give for `CCOc1ccc(/C=N/NC(=O)c2cc(-c3ccco3)nc3ccccc23)cc1` here?
**A.** inconclusive: 14.1 µM [inhibitor, partial curve]

**Q.** `CC1=CC(C)(C)N2C(=O)C3(C(C#N)=C(N)Oc4cc(O)ccc43)c3c(C)c(C)cc1c32` (stereo not given) was tested. Which activity change, negative = inhibition did it give?
**A.** inactive: -3.37%

**Q.** How did the activity change, negative = inhibition turn out when `CCCOC(=O)Nc1nnc(CCC)s1` was run?
**A.** inactive: -11.9%

**Q.** How did the Potency turn out when `CCOC(=O)C1=C(C)NC2=C(C(=O)C(C(=O)OCC)C(c3ccco3)C2)C1c1ccccn1` (stereo not given) was run?
**A.** inconclusive: 31.6 µM [inhibitor, partial curve]

**Q.** Which Potency does the source give for `O=C(c1cc2cc(Br)ccc2oc1=O)N1CCCC1` here?
**A.** active: 20 µM
